Test results as given in PMC12136788.
The other results are listed elsewhere or left out.

B1: 49527312_49527432_209_3pUTR_ENSMUSG00000044018_ENSMUST00000057829|mouse|control|control (ssRNA)
RNA: GGGAGUUCUACAGUCCGACGAUCCUUUAAUAUGAGAUUCCAAGCGACUCUGGAGAUCACUGGGCGGUGUGUAUGCUCGGCUUCGUAAGGGUGGACACACCAAAACAGGUUCUUUUUUCACUUCUUCCACUGUCUCUGCCACAACAACAGAGGAUUGAGCAUCA
B2: chr8:24301720:24301721:-_ENSMUSG00000031545_ENSMUST00000167004|mus_mus|motif|central (ssRNA)
RNA: GGGAGUUCUACAGUCCGACGAUCUGCUUCCAAGGUUUUACUUUCCUCCUGCCCCAAAGCAUUCAGCGGGUAAAUUUGUCCGGAAGAUCUGUAUUGUCAGAAGUACCAAGAAGAGUUCGCCUUGGUGCCAGAAGAAUCCUGAAACAACAGAGGAUUGAGCAUCA
B3: 57929543_57936757_61_3pUTR_ENSG00000175203_ENST00000537439|human|control|control (ssRNA)
RNA: GGGAGUUCUACAGUCCGACGAUCUCCCCACUCUCUUGUCCUUGAACUUGUCAUAGGCAGCAUUAGGAUUGACAAUGAUGUGUUCCACACUUGUGCUUGUCAGCUCCUCAAGAGUCCUUGAAUCCUCUGUUCCCUGUGCAUACACAACAGAGGAUUGAGCAUCA
B4: chr5:110835399:110835400:-_ENSG00000164211_ENST00000296632|hu_mus|FALSE|FALSE (ssRNA)
RNA: GGGAGUUCUACAGUCCGACGAUCAACCAAACAAGGUGCAAAUAAGACUUUUAAGAAAUUGUAAAUGCCCUAUUUACAUAGCCAUGUAUUUUUAAUAGAAAAUGAGAUUGUACUAUGGCCCCAACAACACCUCCAGUGUUUCCACAACAGAGGAUUGAGCAUCA
B5: chr16:55990476:55990477:+_ENSMUSG00000022601_ENSMUST00000050248|mus_hu|motif|central (ssRNA)
RNA: GGGAGUUCUACAGUCCGACGAUCUAGCUUAUGUACACUUUCACAAAUCUCUAAGACUUCUGACAUGAAAAGAUGACGAGCGGAGAUGGCUACAUCAGCCAUGCUACAGAAAUCAAAACUUAGUACAGAAGUAUAGGCAAAUUCCAACAGAGGAUUGAGCAUCA
B6: chr1:118502009:118502010:+_ENSG00000065183_ENST00000349139|hu_mus|FALSE|FALSE (ssRNA)
RNA: GGGAGUUCUACAGUCCGACGAUCUGUUAAAAUCAUCCUUUUCCUGUUUUUUCGUUUUUUCUUCUUCUCUUCCAAGUGACUAGUAGCUUCUGCAAAAAACAUCACUUCACUCUUUGCUUCACACUCUCUCUUGAGAUAAUCGAGCAACAGAGGAUUGAGCAUCA
B7: chr5:77764768:77764769:+_ENSMUSG00000029250_ENSMUST00000031167|mus_mus|FALSE|FALSE (ssRNA)
RNA: GGGAGUUCUACAGUCCGACGAUCGACUCCAAGAAUCAUUGAUGGGUGAAUCUCACAGUGGGUGUAGGUAGAACAAUAAGCUACUUCCUUCUCCUGCAAAUCAUCUGGAGUCAUUGCAAGCAUCACGGUCUCCUCUUCCAGGGUCAACAGAGGAUUGAGCAUCA
B8: chr9:100410314:100410315:+_ENSG00000136937_ENST00000375147|hu_mus|FALSE|FALSE (ssRNA)
RNA: GGGAGUUCUACAGUCCGACGAUCGUGCCUCUCCUGCCACCGGUCUUUUUUCAAUUUCUGAAUCUGGGCCCACAGGCAAUCUAAAUACUCUUCCUGUGGAUGUGGUUUGUCGGCAGUCCAGACUUGUAACAUGGGCACGUGAGUCAACAGAGGAUUGAGCAUCA
B9: 45712936_45714488_62_3pUTR_ENSMUSG00000042790_ENSMUST00000161187|mouse|control|control (ssRNA)
RNA: GGGAGUUCUACAGUCCGACGAUCGAAGAUUCCGAAGGACUCGGGGUACCGGCCCCAAGGCCAGCUACCUCAGAGGCCGCCAUCUGCACUCUGAGCGGGCGGAGCGGGGGAGGGGGCGGCCAAGCCUGGGGGAGGGGUCGAGCGCAACAGAGGAUUGAGCAUCA
B10: chr17:57759754:57759755:+_ENSG00000141367_ENST00000269122|hu_hu|FALSE|FALSE (ssRNA)
RNA: GGGAGUUCUACAGUCCGACGAUCAUCAUAACAACGGUCACCAACUUGUUGGAUAUGAGCAUUAUUUGGUCCAUUGAUAAAUUCUUCUAACUCUGCAAGGCGGUUUGUUUUAGCCAGUGCGAAUAUCAGUUCUGUCUCCACAUACAACAGAGGAUUGAGCAUCA
B11: chr13:120183613:120183614:-_ENSMUSG00000025453_ENSMUST00000099149|mus_mus|motif|central (ssRNA)
RNA: GGGAGUUCUACAGUCCGACGAUCGUAGAUGAAGCUAAUUAGAGUUCCUGAUGGCUUUAAAAAGUCAGCUUCGUGAGCGCCGGACGUCGGGUUCACCAUGGGGGCCCUCACUUUGACCACCAGAUCAGAAGCCAGAACUUCCUUCAACAGAGGAUUGAGCAUCA
B12: chr19:10059387:10059388:+_ENSMUSG00000024661_ENSMUST00000025563|mus_hu|FALSE|FALSE (ssRNA)
RNA: GGGAGUUCUACAGUCCGACGAUCGCCCGAGGCUUAGCUUUCAUUAUCACUGUCUCCCAGGGUGUGCUUGUCAAAGAGAUAUUCCGCCAAGCCAGAUUCGGGCGCUCCCAUCUUGCGCAAGUUGGUCACGUGGUCACCCAAUUCCAACAGAGGAUUGAGCAUCA
B13: chr2:224824363:224824364:+_ENSG00000135900_ENST00000258383|hu_mus|motif|central (ssRNA)
RNA: GGGAGUUCUACAGUCCGACGAUCAGCUUCUUUCUCUAUGCCAAGGCUCUGACGUUUCGCCUCUUCGCUUUUGAUGUAGCAGCGGUUGAUAAAUGCAGUUUUGAGAAGGUCCAACGAAAAGGUUUCUUGUAAGCGAGAUCCAAACAACAGAGGAUUGAGCAUCA
B14: chr17:74801258:74801259:+_ENSMUSG00000024069_ENSMUST00000024870|mus_hu|FALSE|FALSE (ssRNA)
RNA: GGGAGUUCUACAGUCCGACGAUCGUUUAUUACACCAAAGAGCAGUAUCUUCCAGGACCUUCGGUCAGCUGCUACAAGUCUAAAUUCCCGUAACAACUUGCCAAAAAAGGAUCUUUGUGGUUUUCGAAAGAGAUGAAUUGUCCCCAACAGAGGAUUGAGCAUCA
B15: 183518366_183518961_2782_CDS_ENSG00000116698_ENST00000515829|human|control|control (ssRNA)
RNA: GGGAGUUCUACAGUCCGACGAUCGGAGCUGGAUGUCAGGUUUUUCCCAUAUACCUCAUUGAACAUACUAUUAUUUGGGUAUCUUUCCUGAUUGAGAGAGAAUCCGGUGAGGGACAGGAAAGAGGAUGAAUGUGACAUGAGCUCCAACAGAGGAUUGAGCAUCA
B16: chr6:52144354:52144355:-_ENSG00000112118_ENST00000229854|hu_mus|FALSE|FALSE (ssRNA)
RNA: GGGAGUUCUACAGUCCGACGAUCAGCAGGGGCCUUCUCUGGCAUCUCCUGGAUGGUGAUGGUCUGAUGGUCCUUGUAGACAGACAGGCCAUACUCUGUCUCCAGGGGGUUGUUCUCCUCAUCCUUUGUGGGAUAAACAGAACUCAACAGAGGAUUGAGCAUCA
B17: chr6:13820011:13820012:-_ENSMUSG00000052419_ENSMUST00000155856|mus_mus|FALSE|FALSE (ssRNA)
RNA: GGGAGUUCUACAGUCCGACGAUCGUUUAGUACAUUUUUAUUAAACUUUUUCUCAGAGAUAAAAGUUUUUGGCUAAGAUCUAAGUACAAUAUCAACUUGCGAGAUAAAAACAGAAGCAUUAAAAAAAAAGAAAACCAGUAACAACAACAGAGGAUUGAGCAUCA
B18: chr2:216981417:216981418:+_ENSG00000079246_ENST00000392132|hu_hu|hu_hu_hu_mus_True|8_28 (ssRNA)
RNA: GGGAGUUCUACAGUCCGACGAUCCUGAUACUGGUCCUUGCCAGCAAGGGCAUUAUCAGUGCCAUCUGUGCCAUAGAGGACUAACGCAAUCUCAUCUUUGCUCUCCGCAAACACCUGUCGUUGGACAAACAUGGUUAUCACUUUCAACAGAGGAUUGAGCAUCA
B19: chr5:72801247:72801248:+_ENSG00000145741_ENST00000335895|hu_hu|FALSE|FALSE (ssRNA)
RNA: GGGAGUUCUACAGUCCGACGAUCUUAUUAAUCUUUGUUUCAAACUUGAUUCCCAGGCUUCUUCGGCUUAAUUAGCUGCAAAGAAUGAAUUGUGUAUAAGCAAAAACUGAAAAGAGCUGCAGUGUCCAAGGGGCUUGGGCUUAACAACAGAGGAUUGAGCAUCA
B20: chr12:13295503:13295504:+_ENSMUSG00000020576_ENSMUST00000042953|mus_mus|FALSE|FALSE (ssRNA)
RNA: GGGAGUUCUACAGUCCGACGAUCUCCCCGGUAAUUGAUGACCAAGAGCUCUGCAGACCACUGUGCACUGGCUUUGUAUUCUAAAAAUACCAACCCAGCAAUGGCGUAGCUUAAGUCCCCAGCAAAGACAGAUGCCGGGGCAAUCAACAGAGGAUUGAGCAUCA
B21: chr6:86474593:86474594:-_ENSMUSG00000051695_ENSMUST00000053015|mus_mus|FALSE|FALSE (ssRNA)
RNA: GGGAGUUCUACAGUCCGACGAUCCAUUUCUUAUCGACAAACAGAAAAUAAAAUCCAUGAGCCAAAAAAACCCAAACGAAACUAAAAACAGGGAAAAGCUUAUAAAACUAAAUAUGGAUCCCAGCAUUAACGGCUGAACAGAGACAACAGAGGAUUGAGCAUCA
B22: chr7:7679991:7679992:-_ENSG00000106399_ENST00000396682|hu_hu|hu_hu_hu_mus_False|68_98 (ssRNA)
RNA: GGGAGUUCUACAGUCCGACGAUCUGGGAUGAAUCUUUUCCAGCCUCCCCACGAAGCACACGGGCCGGUCGAUGAAUUGUGGUAACAUGCUGGCGUUGACGCGCGCUUUGGGGAGCUGCAUUAUGUCCUCCAUGAUUCUGCCGCCAACAGAGGAUUGAGCAUCA

Each binder was assayed against T1, UNK ZnF1-3 (human, UniProt Q9C0B0 31-174) (assay: nsRBNS (natural sequence RNA bind-n-seq); RBNS binding buffer (assumed for nsRBNS): 25 mM Tris pH 7.5, 150 mM KCl, 3 mM MgCl2, 0.01% Triton X-100, 500 ug/ml BSA, 20 U/ml SUPERase-In, 4 C; UNK is unkempt and MSI1 is Musashi-1; names of the RNAs are library labels; protein concentration not given here; high values mean tight binding).
T1 sequence: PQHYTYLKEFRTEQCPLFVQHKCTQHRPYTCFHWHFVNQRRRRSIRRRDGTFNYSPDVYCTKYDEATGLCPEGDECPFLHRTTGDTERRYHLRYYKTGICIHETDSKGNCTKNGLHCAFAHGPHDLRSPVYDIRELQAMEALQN

Binder | binding signal [enrichment R]
B1 | 0.889
B2 | 0.805
B3 | 0.695
B4 | 1.36
B5 | 0.939
B6 | 0.687
B7 | 0.96
B8 | 0.723
B9 | 1.17
B10 | 1.6
B11 | 0.932
B12 | 0.782
B13 | 1.02
B14 | 0.709
B15 | 1.35
B16 | 0.332
B17 | 1.38
B18 | 0.716
B19 | 1.3
B20 | 0.905
B21 | 3.23
B22 | 0.532
